PubChem BioAssay AID488969 (Vanderbilt High Throughput Screening Facility, 2010)
Whole data set: some 110,000 compounds, median “z-score” near -0.1, cut for the highest 2% near 2. The list shows a part of the results. Calls of active or inactive are those of the source.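 The calls were made as follows: active = z-score in the third read window above 3 or below -3; inactive = the rest.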

target: Metabotropic glutamate receptor 8 (Rattus norvegicus) (UniProt P70579); assay: mGluR8 Gi/Go-coupled signaling modulation – cell-based, rat, thallium flux, HTS, primary screen (AID 488969); settings: HEK293 rat mGluR8, GIRK (G protein-gated inwardly rectifying potassium channel) thallium flux, FluoZin2; at 10 µM; stronger effect = higher value; submaximal glutamate (EC20) added with thallium
Chain of UniProt P70579 (P70579 whole entry, looked up): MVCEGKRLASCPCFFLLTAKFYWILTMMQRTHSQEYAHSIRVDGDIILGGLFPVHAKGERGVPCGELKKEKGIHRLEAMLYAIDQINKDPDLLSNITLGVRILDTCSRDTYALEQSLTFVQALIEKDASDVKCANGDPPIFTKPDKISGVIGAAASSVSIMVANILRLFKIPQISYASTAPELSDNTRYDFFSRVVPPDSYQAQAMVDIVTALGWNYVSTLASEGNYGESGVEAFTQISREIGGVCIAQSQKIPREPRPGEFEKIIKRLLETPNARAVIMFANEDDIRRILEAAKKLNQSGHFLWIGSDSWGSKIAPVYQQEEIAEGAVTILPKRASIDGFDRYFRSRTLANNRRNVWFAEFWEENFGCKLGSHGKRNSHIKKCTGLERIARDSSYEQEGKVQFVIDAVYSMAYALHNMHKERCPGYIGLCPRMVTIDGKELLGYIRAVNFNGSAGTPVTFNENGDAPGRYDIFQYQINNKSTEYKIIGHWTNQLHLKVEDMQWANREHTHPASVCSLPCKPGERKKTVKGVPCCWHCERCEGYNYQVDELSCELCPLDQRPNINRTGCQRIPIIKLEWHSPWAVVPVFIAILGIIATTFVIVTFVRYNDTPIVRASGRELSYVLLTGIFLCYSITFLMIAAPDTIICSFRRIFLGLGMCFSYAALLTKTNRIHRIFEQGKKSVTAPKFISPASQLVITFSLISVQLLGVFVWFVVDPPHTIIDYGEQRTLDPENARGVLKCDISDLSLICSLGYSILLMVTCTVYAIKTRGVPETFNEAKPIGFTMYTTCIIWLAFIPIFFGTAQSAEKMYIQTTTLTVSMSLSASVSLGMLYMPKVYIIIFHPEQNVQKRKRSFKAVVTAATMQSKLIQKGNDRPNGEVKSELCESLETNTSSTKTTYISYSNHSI

Row | Structure (SMILES) | z-score
1 | COc1ccc(OC)c(S(=O)(=O)N(C)CC(=O)N2CCN(c3ccccc3)CC2)c1 | 0.343
2 | S=C1NCCc2ccc(Cl)cc2C1c1ccccc1Cl (stereo not given) | 0.569
3 | CCOC(=O)N1CCC(NC(=O)C2CCCN(S(=O)(=O)c3ccc4c(c3)oc(=O)n4C)C2)CC1 (stereo not given) | 0.0912
4 | O=C(O)C1CC(=O)N(CCc2ccccc2)C1 (stereo not given) | -0.225
5 | CCOC(=O)N1CCN(C(=O)CSc2ncnc3ccccc23)CC1 | active: 3.04
6 | COc1cccc(-c2nn(-c3ccccc3)cc2C(=O)O)c1 | -0.155
7 | Cc1ccc(-n2c(C(C)n3nc(C)c([N+](=O)[O-])c3C)n[nH]c2=S)cc1 (stereo not given) | -0.127
8 | COCCCNS(=O)(=O)c1ccc(SC)cc1 | -0.232
9 | Cc1ccc(C(=O)CSc2ncn[nH]2)cc1 | -0.306
10 | CC(=O)NCCn1ccc2ccccc21 | -0.0333
11 | COc1cc(/C=N/NC(N)=O)ccc1OC(=O)c1ccc(C)cc1 | 0.133
12 | CCOc1ccc(-c2nc(CSc3nncs3)cs2)cc1OC | -1.16
13 | Cc1nn(-c2ccccc2)c(Cl)c1C(=O)Nc1ccccc1 | -0.165
14 | Nc1ccc2nc(CN3CCOCC3)[nH]c2c1 | -0.0601
15 | CCOC(=O)c1ccc(NC(=S)N2CCN(S(C)(=O)=O)CC2)cc1 | -0.4
16 | Cc1cc(C2C(C#N)=C(N)OC3=C2C(=O)CC(C)(C)C3)c(C)s1 (stereo not given) | 0.586
17 | O=C(CSCc1ccccc1)Nc1cccc(C(=O)Nc2ccc(C(=O)O)cc2)c1 | -0.231
18 | CC(=O)NC1(C(F)(F)F)NC(=O)N(C2CCCCC2)C1=O (stereo not given) | -0.137
19 | O=C(COC(=O)CSc1ccc2ccccc2c1)NC1CCCC1 | 0.968
20 | COC(=O)c1ccc(NC(=O)c2cn(-c3ccccc3)nc2-c2ccncc2)cc1 | -0.00876
21 | Cc1ccc(C(=O)Nc2ccc3c(c2)ncn3C)cc1 | -0.212
22 | Cc1ccc2cc(C)c(Sc3nnnn3-c3ccccc3)nc2c1 | -0.239
23 | CN(C)S(=O)(=O)c1cccc(C(=O)NCCc2ccccc2)c1 | 0.589
24 | COc1ccc(C(=O)NC(=S)Nc2ccc(N3CCCC3)cc2)cc1OC | 0.0182
25 | CCc1nnc(NC(=O)CSc2nnc(Cc3cccn3C)n2C)s1 | -0.376
26 | CCc1c(C)nc2ncnn2c1N1CCC(C(=O)Nc2ccc(C)cc2)CC1 | 0.133
27 | Cn1c2ccccc2c(=O)c2c(=O)n(-c3ccccc3)c(C3CCCCC3)nc21 | -1.31
28 | Cc1ccc(S(=O)(=O)N(CC(=O)N/N=C/c2ccco2)Cc2ccccc2)cc1 | -0.308

Row | Structure (SMILES) | z-score
29 | CCOC(=O)C1=C(C)NC(C)=C(C(=O)OCC)C1c1ccc(O)cc1 | -0.238
30 | O=C1CC(c2ccc(F)cc2)Cc2nc(N3CCN(c4ccccc4)CC3)ncc21 (stereo not given) | 0.383
31 | CCCCCCC(C)n1cc(C(C)=O)c(=O)[nH]c1=O (stereo not given) | -0.114
32 | Cc1ccc(Sc2nnc(-c3ccccc3)cc2C#N)cc1 | 0.606
33 | C=CCC1c2cccc(C(=O)OC)c2C(=O)N1c1ccccc1 (stereo not given) | 0.0143
34 | CC1CCN(C(=O)C2CCN(S(=O)(=O)c3cccc4nonc34)CC2)CC1 | -0.0352
35 | CC(Oc1ccccc1)C(=O)N1CCCc2ccccc21 (stereo not given) | -0.279
36 | CCNC(=S)N/N=C/c1ccco1 | 0.768
37 | c1ccc(-c2ccc(-c3nc(-c4ccccn4)no3)cc2)cc1 | 1.81
38 | Cc1cc(C)nc(SCCS(=O)(=O)Cc2ccccc2)n1 | 0.17
39 | CCOc1ccc(NC(=O)C(=O)NCC2CCCN2CC)cc1 (stereo not given) | 0.152
40 | CC(=O)CSc1nsc(SCC(C)=O)c1C#N | -0.107
41 | Cc1cc(=O)[nH]c2c1c(C)nn2C1CCCC1 | -0.189
42 | O=C(Nc1ccc(Cl)cc1)C(c1ccccc1)N(CCO)CCO (stereo not given) | 0.0587
43 | CC1(NC(=S)N(CCO)CCO)CCS(=O)(=O)C1 (stereo not given) | -0.232
44 | O=C(COC(=O)Cc1cccc(C(F)(F)F)c1)Nc1ccc2c(c1)OCCO2 | 0.0552
45 | Brc1cc2c(cc1/C=N/Nc1nc(N3CCCC3)nc(N3CCOCC3)n1)OCO2 | -0.709
46 | Cc1nn(C(=O)N2CCOCC2)c(C)c1CN1C(=O)c2ccccc2C1=O | -0.33
47 | Cc1cccc(-c2nc(CN3CCCC(C(=O)NC4CCC(C)CC4)C3)c(C)o2)c1 (stereo not given) | 0.765
48 | N#Cc1nc(-c2ccco2)oc1N1CCC(C(N)=O)CC1 | -1.21
49 | CN(c1ccc(C(=O)N2CCCCC2)cc1)S(=O)(=O)c1ccccc1 | 0.348
50 | COc1cc(CC(=O)Nc2ccc(S(=O)(=O)N(C)C)cc2)cc(OC)c1OC | 1
51 | CCN1C(=O)/C(=c2\o/c(=C3\C=Cc4ccccc4N3CC)c(=O)n2CC)SC1=S | -1.42
52 | Cc1ccccc1-n1c(=O)[nH]c(=O)c2c(N)c(C(=O)c3ccc(Cl)cc3)sc21 | -0.622
53 | O=C(COC(=O)Cc1ccsc1)Nc1ccc(Cl)c(S(=O)(=O)N2CCOCC2)c1 | -0.179
54 | COC(=O)c1ccc(C2/C(=C(/O)c3ccc(OC(C)C)cc3)C(=O)C(=O)N2c2cc(C)on2)cc1 (stereo not given) | -0.394
55 | O=C(COC(=O)Cc1ccc(F)cc1)Nc1cc(S(=O)(=O)N2CCOCC2)ccc1N1CCCC1 | -0.518
